80 molecules from the supplement of paper PMC6135742 can be followed below.

Structures can show the parent of a compound that is named as a salt. ± gives the standard deviation of the averaged measurements. Whole data set: some 2,600 compounds, median “total cell number (DAPI+ nuclei) relative to DMSO vehicle control” near -1.4, cut for the lowest 2% near -23. The list shows a part of the results.

In this experiment the test system is jimpy (Plp1 jimpy) mouse iPSC-derived oligodendrocyte progenitor cells. As to the kind of experiment: total cell number (DAPI+ nuclei) relative to DMSO vehicle control (SDs above negative control mean); higher = more surviving cells. Particulars: 10 µM; 3 days.
`NCCNS(=O)(=O)c1cccc2c(Cl)cccc12` [A3 hydrochloride] had a total cell number of -3.79.

As for `O=C1CCc2ccc(OCCCCN3CCN(c4cccc(Cl)c4Cl)CC3)cc2N1` [Aripiprazole], the total cell number was -3.83.

Regarding `COc1c2ccoc2cc2oc(=O)ccc12` [Bergapten], the total cell number is -0.221.

Turning to `CCCCCCCCCCCC1=C(O)C(=O)C=C(O)C1=O` [Embelin], the total cell number amounted to 1.

Consider `COC(=O)C1=C(C)NC(C)=C(C(=O)OCC(C)C)C1c1ccccc1[N+](=O)[O-]` (stereo not given) [Nisoldipine], for which the total cell number was -16.3.

As for `COc1ccc2cc(OCC3(C(=O)O)CN(C(=O)c4ccc(F)cc4)C3)ccc2c1`, the total cell number is -1.3.

Turning to `Oc1cc(O)c(Cl)cn1` [Gimeracil], the total cell number came out at 0.777.

For `CC1(C)CNc2cc(NC(=O)c3cccnc3NCc3ccncc3)ccc21` [Motesanib Diphosphate (AMG-706)], the total cell number was -8.1.

As for `OC[C@H]1O[C@@H](c2ccc(Cl)c(Cc3ccc(O[C@H]4CCOC4)cc3)c2)[C@H](O)[C@@H](O)[C@@H]1O`, the total cell number is -1.9.

Turning to `COC(=O)C1=C(C)NC(C)=C(C(=O)OCCN(C)Cc2ccccc2)C1c1cccc([N+](=O)[O-])c1` (stereo not given) [Nicardipine HCl], the total cell number amounted to 0.1.

In turn, `COC(=O)C1=C(C)NC(C)=C(C(=O)OCCN(C)Cc2ccccc2)C1c1cccc([N+](=O)[O-])c1` (stereo not given) [Nicardipine hydrochloride] yielded a total cell number of -2.62.

Regarding `Cc1nc(C#Cc2ccnc(Cl)c2)c(C)n1-c1ccc(OC(F)(F)F)cc1`, the total cell number is -5.16.

The molecule `Cc1cc(Nc2cc(N3CCN(C)CC3)nc(/C=C/c3ccccc3)n2)n[nH]1` registered a total cell number of -26.3.

Molecule `COCCOc1ccc2c(c1)ncn2-c1ccc2cccc(N3CCC(N)CC3)c2n1` registered a total cell number of -16.8.

In turn, `Cc1cc(-c2ccc(CC(=O)Nc3ccc(-c4cccnc4)cc3)cc2)ccn1` returned a total cell number of 6.95.

For `CC(C)[C@H](N)C(=O)OCC(CO)OCn1cnc2c(=O)[nH]c(N)nc21` (stereo not given in full) [Valganciclovir hydrochloride hydrate], the total cell number is -1.15.

`CC(C)[C@H](N)C(=O)OCC(CO)OCn1cnc2c(=O)[nH]c(N)nc21` (stereo not given in full) [Valganciclovir HCl] came in with a total cell number of -0.189.

In turn, `O=C(c1ccc(OCCCc2c[nH]cn2)cc1)C1CC1` [Ciproxifan] returned a total cell number of -1.05.

With `O=C(c1ccc(OCCCc2c[nH]cn2)cc1)C1CC1` [Ciproxifan hydrochloride], the total cell number is -2.01.

The molecule `CCOc1ccc(NC(C)=O)cc1` [Phenacetin] showed a total cell number of -0.749.

For `CN1CCC[C@@H]1CCO[C@](C)(c1ccccc1)c1ccc(Cl)cc1` [Clemastine Fumarate], the total cell number is -12.8.

For `CN1CCC[C@@H]1CCO[C@](C)(c1ccccc1)c1ccc(Cl)cc1` [Clemastine fumarate], the total cell number is -8.02.

`COc1cc2ncnc(Nc3ccc(F)c(Cl)c3)c2cc1OCCCN1CCOCC1` [Gefitinib (ZD1839)] came in with a total cell number of -20.6.

Regarding `CN1CCN(c2nc(C3=C(c4c[nH]c5ccccc45)C(=O)NC3=O)c3ccccc3n2)CC1` [Sotrastaurin], the total cell number was -3.84.

Molecule `CC(C(=O)O)c1ccc(C(=O)c2cccs2)cc1` (stereo not given) [Suprofen] showed a total cell number of -1.04.

Turning to `O=C(O)c1cccnc1C(=O)O` [Quinolinic acid], the total cell number was -1.04.

Turning to `COC(=O)[C@]12CCC(C)(C)C[C@H]1[C@H]1C(=O)C=C3[C@@]4(C)C=C(C#N)C(=O)C(C)(C)[C@@H]4CC[C@@]3(C)[C@]1(C)CC2` [Bardoxolone Methyl], the total cell number was -16.7.

For `CCCCC[C@H](O)/C=C/[C@H]1[C@H](O)CC(=O)[C@@H]1CCCCCCC(=O)O` [Alprostadil], the total cell number was -1.79.

Molecule `CC[C@@H]([C@H](C)O)n1ncn(-c2ccc(N3CCN(c4ccc(OC[C@@H]5CO[C@@](Cn6cncn6)(c6ccc(F)cc6F)C5)cc4)CC3)cc2)c1=O` [Posaconazole] yielded a total cell number of -17.4.

The molecule `CN(CC[C@@H](Oc1ccc(C(F)(F)F)cc1)c1ccccc1)CC(=O)[O-].[Li+]` returned a total cell number of -1.97.

With `O=C(O)c1ccccc1` [Benzoic Acid], the total cell number is -0.639.

Take `CCN1CCC[C@H]1CNC(=O)c1c(O)c(Cl)cc(Cl)c1OC` [S(+)-Raclopride L-tartrate]: the total cell number was -1.61.

`CCN(CCCOc1ccc2c(Nc3cc(CC(=O)Nc4cccc(F)c4)[nH]n3)ncnc2c1)CCOP(=O)(O)O` [Barasertib (AZD1152-HQPA)] registered a total cell number of -10.7.

`CC/C(=C(\c1ccccc1)c1ccc(OCCN(C)C)cc1)c1ccccc1` [Tamoxifen citrate] registered a total cell number of -5.75.

On to `CC/C(=C(\c1ccccc1)c1ccc(OCCN(C)C)cc1)c1ccccc1` [Tamoxifen Citrate], for which the total cell number was -16.5.

Consider `CC/C(=C(\c1ccccc1)c1ccc(OCCN(C)C)cc1)c1ccccc1` [Tamoxifen], for which the total cell number is -9.77.

`CCc1oc2ccccc2c1C(=O)c1cc(Br)c(O)c(Br)c1` [Benzbromarone]: the total cell number is 1.16.

For `CN(C)CCCCC(=O)Nc1ccc(NC(=S)NC(=O)c2ccc(C(C)(C)C)cc2)cc1` [Tenovin-6], the total cell number is -15.7.

Molecule `C=C(c1ccc(C(=O)O)cc1)c1cc2c(cc1C)C(C)(C)CCC2(C)C` [Bexarotene] showed a total cell number of -0.481 ± 1.5.

For the molecule `CC[N+](CC)(CC)CCOc1cccc(OCC[N+](CC)(CC)CC)c1OCC[N+](CC)(CC)CC` [Gallamine triethiodide], the total cell number is -1.79.

`CC[N+](CC)(CC)CCOc1cccc(OCC[N+](CC)(CC)CC)c1OCC[N+](CC)(CC)CC` [Gallamine Triethiodide] gave a total cell number of -1.13.

In the case of `CCOC(=O)[N-]c1c[n+](N2CCOCC2)no1` [Molsidomine], the total cell number was found to be 0.602.

Molecule `CC(C)(C)NCC(O)c1cc(O)cc(O)c1` (stereo not given) [Terbutaline hemisulfate] returned a total cell number of -0.695.

In turn, `O=C(O)CCCCC1CCSS1` (racemic) [(±)-alpha-Lipoic Acid] came in with a total cell number of -1.32.

Consider `N[C@H](C(=O)O)[C@H]1C[C@@H]1C(=O)O` [(2S,1'S,2'S)-2-(carboxycyclopropyl)glycine], for which the total cell number was -0.886.

Consider `O=C(c1cncc(Br)c1)N1CCC(N2CCCC2)CC1`, for which the total cell number was found to be 2.68.

For `Cc1cnc(C(=O)O)c[n+]1[O-]` [Acipimox], the total cell number was -3.37.

In the case of `O=c1c(O)c(-c2ccc(O)c(O)c2)oc2cc(O)cc(O)c12` [Quercetin], the total cell number is -5.44.

`O=c1c(O)c(-c2ccc(O)c(O)c2)oc2cc(O)cc(O)c12` [Quercetin Dihydrate] yielded a total cell number of -2.8.

The molecule `O=c1c(O)c(-c2ccc(O)c(O)c2)oc2cc(O)cc(O)c12` [Quercetin dihydrate] gave a total cell number of -4.04.

In turn, `COC(=O)C(N)Cc1ccc(Cl)cc1` (racemic) [DL-p-Chlorophenylalanine methyl ester hydrochloride] had a total cell number of -3.35.

Molecule `O=C(O)C1(C(=O)O)CCC1.[NH2-].[NH2-].[Pt+2]` [Carboplatin] displayed a total cell number of -4.56 ± 1.4.

With `CC(C)Cc1ccc(C(C)C(=O)O)cc1` (stereo not given) [Ibuprofen], the total cell number was determined as 1.28.

`COc1ccc(CN2CCN(C(c3ccc(F)cc3)c3ccc(F)cc3)CC2)c(OC)c1OC` [Lomerizine HCl] came in with a total cell number of -14.2.

`COCCc1ccc(OCC(O)CNC(C)C)cc1` (stereo not given) [Metoprolol Tartrate] gave a total cell number of -2.15.

`CCN1CCN(Cc2ccc(Nc3ncc(F)c(-c4cc(F)c5nc(C)n(C(C)C)c5c4)n3)nc2)CC1`: the total cell number was -15.3.

Take `NCCCS(=O)(=O)O` [3-Amino-1-propanesulfonic acid sodium]: the total cell number was -3.56.

`Cc1[nH]nc2ccc(-c3cncc(OC[C@@H](N)Cc4ccccc4)c3)cc12` returned a total cell number of -10.4.

The molecule `CC(C)[C@H](O)C(=O)N[C@@H](C)C(=O)N[C@@H]1C(=O)N(C)CCc2ccccc21` had a total cell number of -6.62.

Regarding `Nc1ccc(/N=N/c2ccccc2)c(N)n1` [Phenazopyridine HCl], the total cell number is -6.07.

Consider `NS(=O)(=O)c1nn2cc(-c3ccccc3)nc2s1`, for which the total cell number was -5.78.

In turn, `CCC(=O)O[C@]1(C(=O)SCF)[C@H](C)C[C@H]2[C@@H]3C[C@H](F)C4=CC(=O)C=C[C@]4(C)[C@@]3(F)[C@@H](O)C[C@@]21C` [Fluticasone propionate] came in with a total cell number of 5.81.

The molecule `O=C(O)Cn1nnc(-c2cc(N3CCC(Oc4cc(F)ccc4Br)CC3)no2)n1` registered a total cell number of 3.6.

For `O=C(O)c1ccccc1Nc1cccc(C(F)(F)F)c1` [Flufenamic acid], the total cell number is 1.42.

`c1ccc(-c2nn3c(c2-c2ccnc4cc(OCCN5CCOCC5)ccc24)CCC3)nc1` returned a total cell number of -4.67.

In turn, `Cc1cccc(C)c1OCC(=O)N[C@@H](Cc1ccccc1)[C@@H](O)C[C@H](Cc1ccccc1)NC(=O)[C@H](C(C)C)N1CCCNC1=O` [Lopinavir] came in with a total cell number of -3.63.

`O=C1O[C@H]([C@@H](O)CO)C(O)=C1O` [Vitamin C] displayed a total cell number of -1.24.

`Clc1ccc(C(c2ccccc2Cl)C(Cl)Cl)cc1` (stereo not given) [Mitotane] registered a total cell number of -1.65.

As to `CNCc1ccc(C)c(NC(=O)c2ccc(Nc3nc(-c4ccccc4)c4ccccc4n3)cc2)c1`, the total cell number was -15.

Take `COc1cc(CCc2cc(NC(=O)c3ccc(N4CC(C)NC(C)C4)cc3)n[nH]2)cc(OC)c1` (stereo not given): the total cell number is -10.9.

Consider `O=C1Nc2ccc(Cl)cc2[C@@](C#CC2CC2)(C(F)(F)F)O1` [Efavirenz], for which the total cell number was found to be 0.

Consider `Nc1ccc(C(=O)O)c(O)c1` [Sodium 4-Aminosalicylate], for which the total cell number was -2.66.

In turn, `CCC(C)(C)C(=O)O[C@H]1C[C@@H](C)C=C2C=C[C@H](C)[C@H](CC[C@@H]3C[C@@H](O)CC(=O)O3)[C@H]21` [Simvastatin] returned a total cell number of -17.6.

As for `COc1cccc(OC)c1OCCNCC1CSc2ccccc2O1` (stereo not given) [Benoxathian hydrochloride], the total cell number was -0.65.

As to `O=C(CSc1nc2c(c(=O)n1-c1ccccc1)SCC2)Nc1ccc(-c2ccccc2)cn1`, the total cell number came to 1.03.

Turning to `CC(=O)Oc1ccc(C(c2ccc(OC(C)=O)cc2)c2ccccn2)cc1` [Bisacodyl], the total cell number amounted to 2.35.

For the molecule `CCOC(=O)CC(=O)N1CCSC1COc1ccccc1OC` (stereo not given) [Moguisteine], the total cell number was -1.39.

`N#CC[C@H](C1CCCC1)n1cc(-c2ncnc3[nH]ccc23)cn1` gave a total cell number of -2.44.

In turn, `COc1cc(CNC(=O)CCCCCCC(C)C)ccc1O` [Dihydrocapsaicin] returned a total cell number of -4.48.

In turn, `CN(C[C@@H]1COCCO1)S(=O)(=O)Nc1ccc2ccc3ncc(-c4cnn(C)c4)cc3c(=O)c2c1` came in with a total cell number of -9.05.
